Experimental data published in US20240182536A1.

What was measured:
[1] = biological target: IL-18 receptors on HEK-Blue IL-18 reporter cells (UniProt Q13478); test: cell-based or functional assay
[2] = biological target: human IL-18 binding protein (human) (UniProt O95998); test: cell-based or functional assay
Sequence of UniProt O95998 (O95998 31-194 limits assumed): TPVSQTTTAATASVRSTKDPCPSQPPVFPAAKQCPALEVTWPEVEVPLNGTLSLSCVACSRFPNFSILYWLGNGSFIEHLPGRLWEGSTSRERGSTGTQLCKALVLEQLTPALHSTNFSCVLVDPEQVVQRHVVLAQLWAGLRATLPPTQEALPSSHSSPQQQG

Sequence of UniProt Q13478 (Q13478 19-541 limits assumed, chain 1 of 2): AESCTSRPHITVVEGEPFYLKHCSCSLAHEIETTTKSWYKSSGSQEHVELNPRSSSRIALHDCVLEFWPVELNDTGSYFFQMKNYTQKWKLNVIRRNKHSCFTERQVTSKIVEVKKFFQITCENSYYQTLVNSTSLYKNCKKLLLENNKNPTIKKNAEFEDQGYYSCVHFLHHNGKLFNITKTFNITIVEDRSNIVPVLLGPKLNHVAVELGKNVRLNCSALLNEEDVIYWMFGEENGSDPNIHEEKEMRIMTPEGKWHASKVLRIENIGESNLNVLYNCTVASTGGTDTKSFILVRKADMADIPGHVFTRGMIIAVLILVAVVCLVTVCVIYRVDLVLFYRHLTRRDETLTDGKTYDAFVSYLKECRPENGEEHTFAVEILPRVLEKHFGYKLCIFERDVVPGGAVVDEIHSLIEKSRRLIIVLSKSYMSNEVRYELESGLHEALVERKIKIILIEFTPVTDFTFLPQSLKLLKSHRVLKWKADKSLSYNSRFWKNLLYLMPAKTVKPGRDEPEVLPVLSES
Sequence of UniProt Q13478 (O95256 20-599 limits assumed, chain 2 of 2, further chain): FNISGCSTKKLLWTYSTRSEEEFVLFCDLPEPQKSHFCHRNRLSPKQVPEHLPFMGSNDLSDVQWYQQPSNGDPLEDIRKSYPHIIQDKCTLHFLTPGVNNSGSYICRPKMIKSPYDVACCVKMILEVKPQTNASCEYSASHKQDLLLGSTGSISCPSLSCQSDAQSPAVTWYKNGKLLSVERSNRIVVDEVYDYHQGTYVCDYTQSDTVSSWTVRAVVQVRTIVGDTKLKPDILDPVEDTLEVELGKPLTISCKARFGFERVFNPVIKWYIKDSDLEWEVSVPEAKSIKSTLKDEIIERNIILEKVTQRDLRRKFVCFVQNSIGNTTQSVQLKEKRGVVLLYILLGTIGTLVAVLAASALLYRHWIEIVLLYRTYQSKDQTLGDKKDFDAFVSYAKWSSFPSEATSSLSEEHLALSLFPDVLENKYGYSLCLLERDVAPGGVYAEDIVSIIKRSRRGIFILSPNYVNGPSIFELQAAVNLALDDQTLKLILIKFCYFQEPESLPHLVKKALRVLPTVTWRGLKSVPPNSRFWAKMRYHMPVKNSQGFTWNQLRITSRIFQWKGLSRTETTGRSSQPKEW

HEK-blue EC50 (pM) - IL-18BP [1]: 0.28 pM | HEK-blue EC50 (pM) + 300 nM IL-18BP [2]: 0.27 pM
B1: Comparator 1-HSA-his-avi (protein, not shown: small tags and cut ends)
chain: YFGKLESKLSVIRNLNDQVLFIDQGNRPLFEDMTDSDCRDNAPRTIFIISKYSDSLARGLAVTISVKCEKISTLSCENKIISFKEMNPPDNIKDTKSDIIFFQRDVPGHSRKMQFESSSYEGYFLACEKERDLFKLILKKEDELGDRSIMFTVQNEDDAHKSEVAHRFKDLGEENFKALVLIAFAQYLQQCPFEDHVKLVNEVTEFAKTCVADESAENCDKSLHTLFGDKLCTVATLRETYGEMADCCAKQEPERNECFLQHKDDNPNLPRLVRPEVDVMCTAFHDNEETFLKKYLYEIARRHPYFYAPELLFFAKRYKAAFTECCQAADKAACLLPKLDELR[letters of about 200 residues not shown]NLIKQNCELFEQLGEYKFQNALLVRYTKKVPQVSTPTLVEVSRNLGKVGSKCCKHPEAKRMPCAEDCLSVFLNQLCVLHEKTPVSDRVTKCCTESLVNGRPCFSALEVDETYVPKEFNAETFTFHADICTLSEKERQIKKQTALVELVKHKPKATKEQLKAVMDDFAAFVEKCCKADDKETCFAEEGKKLVAASQAALGL
